Laboratory results taken from the supplement of paper PMC4967469.
The IC50 comes from the fitted curve, where viability falls to half of the control; fits outside the tested doses are given as limits. AUC sums up the same curve from the lowest dose to the 256-fold higher top dose; it is 1 without any effect and falls as sensitivity rises. For some of these results: Where the top dose is marked as inferred, it is not printed in the source and was worked back from the curve model.

Legend:
Experiment in all cases: Viability of human cancer cell lines after 72 h of drug (GDSC screen)
Dabrafenib = compound: CC(C)(C)c1nc(-c2cccc(NS(=O)(=O)c3c(F)cccc3F)c2F)c(-c2ccnc(N)n2)s1 [Dabrafenib]; conditions: top dose 10 µM
Method: (§1)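 Human cancer cell lines in 384-well plates, medium with 10% serum, drug for 72 h over a 256-fold dose range (nine 2-fold or five 4-fold steps up to the top dose). Adherent lines were fixed and stained with the nucleic acid dye Syto60, suspension lines read with resazurin; signal relative to control wells, capped at 0 and 100%. One two-parameter sigmoid per drug and line, fitted in a mixed model over all curves with the slope shared within a line.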

Axitinib = compound: CNC(=O)c1ccccc1Sc1ccc2c(/C=C/c3ccccn3)n[nH]c2c1 [Axitinib]; conditions: top dose 2 µM
Method: as §1

Vorinostat = compound: O=C(CCCCCCC(=O)Nc1ccccc1)NO [Vorinostat]; conditions: top dose 10 µM
Method: as §1

Methotrexate = compound: CN(Cc1cnc2nc(N)nc(N)c2n1)c1ccc(C(=O)N[C@@H](CCC(=O)O)C(=O)O)cc1 [Methotrexate]; conditions: top dose 0.2 µM
Method: as §1

SN-38 = compound: CCc1c2c(nc3ccc(O)cc13)-c1cc3c(c(=O)n1C2)COC(=O)[C@]3(O)CC [SN-38]; conditions: top dose 0.05 µM; top dose inferred
Method: as §1

| Cell Line | AUC (Dabrafenib) | IC50 (Dabrafenib) [µM] | AUC (Axitinib) | IC50 (Axitinib) [µM] | AUC (Vorinostat) | IC50 (Vorinostat) [µM] | AUC (Methotrexate) | IC50 (Methotrexate) [µM] | AUC (SN-38) | IC50 (SN-38) [µM] |
| --- | --- | --- | --- | --- | --- | --- | --- | --- | --- | --- |
| KYSE-510 (oesophagus, adherent) | 0.988 | > 10 | 0.97 | > 2 | 0.799 | 3.88 | 0.77 | 0.064 | 0.632 | 0.00674 |
| CRO-AP2 (B-cell lymphoma, suspension) | 0.964 | > 10 | 0.876 | 1.54 | 0.402 | 0.349 | 0.466 | 0.0103 | 0.442 | 0.00223 |
| SH-4 (melanoma, adherent) | 0.111 | < 0.0391 | 0.959 | > 2 | 0.854 | > 10 | 0.963 | > 0.2 | 0.71 | 0.0173 |
| Mo-T (hairy cell leukaemia, suspension) | 0.976 | > 10 | 0.93 | > 2 | 0.433 | 0.408 | 0.937 | > 0.2 | 0.676 | 0.00978 |
| VAL (B-cell lymphoma, suspension) | 0.963 | > 10 | 0.944 | > 2 | 0.648 | 1.61 | 0.827 | 0.122 | 0.682 | 0.0101 |
| SU-DHL-5 (B-cell lymphoma, suspension) | 0.579 | 0.973 | 0.929 | 1.87 | 0.522 | 0.706 | 0.64 | 0.0275 | 0.127 | 0.000339 |
| NCI-H1341 (small cell lung carcinoma, suspension) | 0.991 | > 10 | 0.937 | > 2 | 0.6 | 1.12 | 0.977 | > 0.2 | 0.519 | 0.00348 |
| TC-YIK (cervix, suspension) | 0.967 | > 10 | 0.91 | > 2 | 0.604 | 1.16 | 0.701 | 0.042 | 0.344 | 0.00123 |
| D-392MG (glioma, adherent) | 0.97 | > 10 | 0.846 | > 2 | 0.87 | > 10 | 0.835 | > 0.2 | 0.7 | 0.0142 |
| HO-1-u-1 (head and neck, adherent) | 0.96 | > 10 | 0.943 | > 2 | 0.636 | 1.46 | 0.934 | > 0.2 | 0.676 | 0.00948 |
| NCI-H1666 (lung adenocarcinoma, semi-adherent) | 0.874 | > 10 | 0.985 | > 2 | 0.681 | 2.11 | 0.912 | > 0.2 | 0.733 | 0.0155 |
| SBC-1 (small cell lung carcinoma, suspension) | 0.987 | > 10 | 0.947 | > 2 | 0.479 | 0.549 | 0.91 | > 0.2 | 0.831 | 0.0302 |
| TUR (B-cell lymphoma, suspension) | 0.915 | > 10 | 0.852 | 1.37 | 0.541 | 0.799 | 0.378 | 0.00593 | 0.617 | 0.00639 |
| HARA (lung squamous cell carcinoma, adherent) | 0.977 | > 10 | 0.907 | > 2 | 0.679 | 2.16 | 0.82 | 0.14 | 0.696 | 0.0123 |
| UWB1.289 (ovary, adherent) | 0.928 | > 10 | 0.97 | > 2 | 0.804 | 8.36 | 0.959 | > 0.2 | 0.652 | 0.0103 |
| KYM-1 (rhabdomyosarcoma, adherent) | 0.98 | > 10 | 0.93 | > 2 | 0.724 | 2.42 | 0.972 | > 0.2 | 0.63 | 0.00675 |
| K5 (thyroid, adherent) | 0.061 | < 0.0391 | 0.978 | > 2 | 0.69 | 2.07 | 0.765 | 0.0703 | 0.579 | 0.00509 |
| KARPAS-231 (B-cell leukaemia, suspension) | 0.994 | > 10 | 0.926 | 1.94 | 0.461 | 0.502 | 0.569 | 0.0184 | 0.357 | 0.00139 |
| NCI-H146 (small cell lung carcinoma, suspension) | 0.995 | > 10 | 0.986 | > 2 | 0.494 | 0.606 | 0.93 | > 0.2 | 0.964 | > 0.05 |
| JHH-6 (liver, adherent) | 0.979 | > 10 | 0.984 | > 2 | 0.767 | 3.78 | 0.971 | > 0.2 | 0.533 | 0.00386 |
| OACp4C (oesophagus, adherent) | 0.958 | > 10 | 0.909 | > 2 | 0.617 | 1.4 | 0.903 | > 0.2 | 0.905 | > 0.05 |
| GR-ST (lymphoblastic leukaemia, suspension) | 0.816 | 7.04 | 0.964 | > 2 | 0.758 | 4.14 | 0.651 | 0.0359 | 0.468 | 0.0025 |
| OMC-1 (cervix, adherent) | 0.98 | > 10 | 0.961 | > 2 | 0.869 | 9.98 | 0.988 | > 0.2 | 0.881 | > 0.05 |
| LS-1034 (large intestine, adherent) | 0.985 | > 10 | 0.975 | > 2 | 0.871 | > 10 | 0.972 | > 0.2 | 0.861 | 0.0497 |
| IST-SL1 (small cell lung carcinoma, semi-adherent) | 0.981 | > 10 | 0.901 | > 2 | 0.649 | 1.63 | 0.869 | 0.193 | 0.857 | 0.0427 |
